Laboratory results reported in the supplement of paper PMC8285479.
Counter-ions that a name gives are not always drawn. ± gives the standard deviation of the averaged measurements. In all, about 1,900 compounds were measured (“normalised cell viability (NPI; 0 = phenylarsine oxide control, 1 = DMSO control)”: median about 1, lowest 2% from about 0.039 on). This is one part of the list.

Test system: NCI-H1944
Assay: normalised cell viability (NPI; 0 = phenylarsine oxide control, 1 = DMSO control) (fraction of DMSO control); NCI-H1944 is a non-small cell lung cancer line; higher = more viable cells (less compound toxicity)
Details: 6 days
[1] = glucocorticoid arm: hydrocortisone 2.75 uM co-treatment, compound 1 µM
[2] = glucocorticoid arm: hydrocortisone 2.75 uM co-treatment, compound 5 µM
[3] = glucocorticoid arm: hydrocortisone 2.75 uM pre-treated 2 days and continued, compound 1 µM
[4] = glucocorticoid arm: hydrocortisone 2.75 uM pre-treated 2 days and continued, compound 5 µM
[5] = glucocorticoid arm: vehicle, compound 1 µM
[6] = glucocorticoid arm: vehicle, compound 5 µM
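Further: CTB read-out in 384-well plates, mean of triplicate wells, normalised per plate against 1 µM phenylarsine oxide and 0.1% DMSO, compounds added 24 h after seeding.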

Work on CCc1ccc(/C=C2/SC(=S)NC2=O)cc1 yielded a normalised cell viability [1] of 1.01 ± 0.017, a normalised cell viability [2] of 1.06 ± 0.011 and a normalised cell viability [3] of 1.04. For the same compound, the normalised cell viability [4] was 1.04 ± 0.021, the normalised cell viability [5] was 1.007 ± 0.0058 and the normalised cell viability [6] was 1.013 ± 0.0058.
O=c1cc(N2CCOCC2)oc2c(-c3ccccc3)cccc12 [LY-294,002 hydrochloride] showed a normalised cell viability [1] of 0.995 ± 0.014, a normalised cell viability [2] of 0.7767 ± 0.0058 and a normalised cell viability [3] of 1.002 ± 0.0068. The normalised cell viability [4] was 0.833 ± 0.27, the normalised cell viability [5] was 1.006 ± 0.0063 and the normalised cell viability [6] was 0.907 ± 0.015.
For O=c1cc(N2CCOCC2)oc2c(-c3ccccc3)cccc12, the normalised cell viability [1] was 0.951 ± 0.0066, the normalised cell viability [2] was 0.74 ± 0.02 and the normalised cell viability [3] was 0.939 ± 0.016. For the same compound, the normalised cell viability [4] was 0.814 ± 0.05, the normalised cell viability [5] was 0.974 ± 0.017 and the normalised cell viability [6] was 0.801 ± 0.033.
Cc1c(C(=O)Nc2ccc(N3C[C@@H](C)O[C@@H](C)C3)nc2)cccc1-c1ccc(OC(F)(F)F)cc1 [LDE225 (NVP-LDE225,Erismodegib)] showed a normalised cell viability [1] of 1.027 ± 0.0058, a normalised cell viability [2] of 1.02 ± 0.02 and a normalised cell viability [3] of 1.01 ± 0.024. The normalised cell viability [4] was 1.03 ± 0.021, the normalised cell viability [5] was 1.02 ± 0.01 and the normalised cell viability [6] was 1.013 ± 0.0058.
Nc1cc(C(F)(F)F)c(-c2cc(N3CCOCC3)nc(N3CCOCC3)n2)cn1 was tested, and the normalised cell viability [1] was 0.6 ± 0.048, the normalised cell viability [2] was 0.203 ± 0.0045 and the normalised cell viability [3] was 0.713 ± 0.038. For the same compound, the normalised cell viability [4] was 0.411 ± 0.029, the normalised cell viability [5] was 0.613 ± 0.059 and the normalised cell viability [6] was 0.0297 ± 0.0061.
Compound CC(C)NNC(=O)c1ccncc1 [Iproniazid phosphate] has a normalised cell viability [1] of 0.994 ± 0.01, a normalised cell viability [2] of 0.985 ± 0.018 and a normalised cell viability [3] of 0.9983 ± 0.0029. It also gave a normalised cell viability [4] of 1.01 ± 0.087, a normalised cell viability [5] of 0.9877 ± 0.004 and a normalised cell viability [6] of 0.995 ± 0.013.
Work on Cc1cnc(NC(=O)Nc2cc(Br)c(C)cc2OC[C@@H]2CNCCO2)cn1 yielded a normalised cell viability [1] of 1.03 ± 0.015, a normalised cell viability [2] of 0.827 ± 0.041 and a normalised cell viability [3] of 1.04 ± 0.015. It also gave a normalised cell viability [4] of 1.04 ± 0.011, a normalised cell viability [5] of 0.776 ± 0.01 and a normalised cell viability [6] of 0.334 ± 0.027.
For O=C(O)c1cc(=O)c2ccccc2[nH]1 [Kynurenic acid], the normalised cell viability [1] was 1 ± 0.01, the normalised cell viability [2] was 1.01 ± 0.019 and the normalised cell viability [3] was 0.994 ± 0.018. The normalised cell viability [4] was 1.03 ± 0.071, the normalised cell viability [5] was 0.9953 ± 0.0072 and the normalised cell viability [6] was 1.01 ± 0.013.
Clc1ccc(C(c2ccccc2Cl)C(Cl)Cl)cc1 (configuration not stated) showed a normalised cell viability [1] of 0.998 ± 0.019, a normalised cell viability [2] of 1.02 ± 0.037 and a normalised cell viability [3] of 0.998 ± 0.011. For the same compound, the normalised cell viability [4] was 1.02 ± 0.01, the normalised cell viability [5] was 0.9913 ± 0.0081 and the normalised cell viability [6] was 1.007 ± 0.0058.
With Clc1ccc(C(c2ccccc2Cl)C(Cl)Cl)cc1 (configuration not stated) [1-(2-Chlorophenyl)-1-(4-chlorophenyl)-2,2-dichloroethane] the normalised cell viability [1] was 1.013 ± 0.0058, the normalised cell viability [2] was 0.988 ± 0.01 and the normalised cell viability [3] was 0.993 ± 0.0082. For the same compound, the normalised cell viability [4] was 1.01 ± 0.026, the normalised cell viability [5] was 0.984 ± 0.005 and the normalised cell viability [6] was 0.9963 ± 0.0035.
With Cc1cccc(C)c1OCC(=O)N[C@@H](Cc1ccccc1)[C@@H](O)C[C@H](Cc1ccccc1)NC(=O)[C@H](C(C)C)N1CCCNC1=O [Lopinavir (ABT-378)] the normalised cell viability [1] was 0.989 ± 0.0069, the normalised cell viability [2] was 1.033 ± 0.0058 and the normalised cell viability [3] was 1.01 ± 0.014. The normalised cell viability [4] was 1.03 ± 0.01, the normalised cell viability [5] was 0.9957 ± 0.0045 and the normalised cell viability [6] was 0.9857 ± 0.0076.
With COc1cc(CCc2cc(NC(=O)c3ccc(N4CC(C)NC(C)C4)cc3)n[nH]2)cc(OC)c1 (configuration not stated) the normalised cell viability [1] was 1.03 ± 0.01, the normalised cell viability [2] was 0.735 ± 0.034 and the normalised cell viability [3] was 1.04. For the same compound, the normalised cell viability [4] was 0.863 ± 0.041, the normalised cell viability [5] was 1.01 ± 0.019 and the normalised cell viability [6] was 0.91 ± 0.025.
Compound CCCCCCCCCCCCCCCCCCNC(=O)OCC(COP(=O)([O-])OCC[n+]1ccsc1)OC (configuration not stated) has a normalised cell viability [1] of 0.9967 ± 0.0035, a normalised cell viability [2] of 1.02 ± 0.011 and a normalised cell viability [3] of 1.02 ± 0.024. The normalised cell viability [4] was 1.01 ± 0.015, the normalised cell viability [5] was 0.997 ± 0.0017 and the normalised cell viability [6] was 0.82 ± 0.33.
In the case of CNCc1ccc(C)c(NC(=O)c2ccc(Nc3nc(-c4ccccc4)c4ccccc4n3)cc2)c1, the normalised cell viability [1] is reported as 0.965 ± 0.017, the normalised cell viability [2] is reported as 0.939 ± 0.017 and the normalised cell viability [3] is reported as 0.9953 ± 0.0021. The normalised cell viability [4] was 0.959 ± 0.015, the normalised cell viability [5] was 0.991 ± 0.0027 and the normalised cell viability [6] was 0.988 ± 0.011.
With CC(C)[C@H](O)C(=O)N[C@@H](C)C(=O)N[C@@H]1C(=O)N(C)CCc2ccccc21 the normalised cell viability [1] was 0.964 ± 0.019, the normalised cell viability [2] was 0.983 ± 0.025 and the normalised cell viability [3] was 0.98 ± 0.021. For the same compound, the normalised cell viability [4] was 0.998 ± 0.013, the normalised cell viability [5] was 0.979 ± 0.014 and the normalised cell viability [6] was 0.98 ± 0.012.
Work on Cc1[nH]nc2ccc(-c3cncc(OC[C@@H](N)Cc4ccccc4)c3)cc12 yielded a normalised cell viability [1] of 0.452 ± 0.007, a normalised cell viability [2] of 0.0555 ± 0.0049 and a normalised cell viability [3] of 0.792 ± 0.022. It also gave a normalised cell viability [4] of 0.129 ± 0.0089, a normalised cell viability [5] of 0.1 ± 0.012 and a normalised cell viability [6] of 0.0136 ± 0.0021.
N#C/C(=C/c1ccc(O)c(O)c1)C(=O)NCc1ccccc1 [Tyrphostin AG 490] gave a normalised cell viability [1] of 1.01 ± 0.016, a normalised cell viability [2] of 1.03 ± 0.015 and a normalised cell viability [3] of 0.999 ± 0.028. For the same compound, the normalised cell viability [4] was 1 ± 0.014, the normalised cell viability [5] was 1.02 ± 0.01 and the normalised cell viability [6] was 1.02 ± 0.01.
